In all, about 33,000 sequences were measured (“E-score (-0.5 to 0.5)”: median about -0.013, highest 2% from about 0.3 on). This is one part of the list.

For the assay, the target named is T1, Msn1 (UniProt P22148).
T1 sequence: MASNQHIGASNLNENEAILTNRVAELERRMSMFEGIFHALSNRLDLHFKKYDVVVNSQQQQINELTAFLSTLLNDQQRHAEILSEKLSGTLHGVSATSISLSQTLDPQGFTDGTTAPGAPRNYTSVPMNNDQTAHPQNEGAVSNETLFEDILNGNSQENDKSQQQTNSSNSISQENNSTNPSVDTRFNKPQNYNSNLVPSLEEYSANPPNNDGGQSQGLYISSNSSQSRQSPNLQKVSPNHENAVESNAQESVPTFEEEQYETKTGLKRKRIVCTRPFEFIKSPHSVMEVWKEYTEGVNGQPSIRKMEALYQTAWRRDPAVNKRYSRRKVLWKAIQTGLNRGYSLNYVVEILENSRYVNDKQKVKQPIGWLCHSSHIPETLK
The assay can be described thus: PBM E-score (8-mer binding enrichment) (E-score (-0.5 to 0.5)); higher = stronger / more preferred TF binding; most listed sequences are background and not binding sites. The following applies: protein concentration: 200 nM; construct: GST-full length. The procedure:
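Universal 'all 10-mer' protein binding microarrays (Agilent AMADID 015681) probed with GST-tagged S. cerevisiae TFs (full-length or DBD) made by in vitro transcription/translation (PURExpress), about 100-200 nM. Bound TF was detected with fluorescent anti-GST. Each ungapped 8-mer (which stands for itself and its reverse complement) is scored by the PBM enrichment score (E-score), a modified Wilcoxon-Mann-Whitney statistic from -0.5 to +0.5, computed with the Universal PBM Analysis Suite. Scale: above 0.35 generally sequence-specific binding.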
Take AAGGGTCT: the “PBM E-score” value is -0.293. As for CTGTACGA, the figure is 0.0832. With AGTGTGAG, the “PBM E-score” value is -0.112. On to CGCCACCG, for which the “PBM E-score” value is -0.181.

Turning to CAAATCCA, the “PBM E-score” value was found to be 0.0437.

Turning to ATCTCATC, the “PBM E-score” value came to 0.0128. With AGCCTCAT, the “PBM E-score” value was -0.195. As for AAGGACTT, the “PBM E-score” value was determined as 0.347. Regarding CATGGTTA, the “PBM E-score” value came to 0.0662. As for CGAACCCA, the figure is -0.133. As for AAACTCTC, the figure is -0.0224; as for CTCGCCTA, 0.0586. As for CACTGTCA, the figure is 0.0817. In the case of CAGGAAAA, the “PBM E-score” value was -0.00083.

As for CGCGAGAA, the “PBM E-score” value was -0.0556. To TACCTAGA belongs -0.0997.

As to AAACAAAA, the “PBM E-score” value came out at 0.127. Consider CCCGCAAA, for which the “PBM E-score” value is -0.0161. As for ACAAAAAA, the figure is 0.225. On to AACTAGGG, for which the “PBM E-score” value was -0.0474. On to AACCTAAG, for which the “PBM E-score” value is 0.0615.

GTCCATGA: the “PBM E-score” value was found to be 0.248. For the sequence GCGCGACC, the “PBM E-score” value was -0.0207. Regarding CAGAAGGA, the “PBM E-score” value was -0.0904. Take AACAGATG: the “PBM E-score” value was determined as 0.0242. In the case of TTCTTAAA, the “PBM E-score” value was -0.0303.

Turning to CAGTTAAA, the “PBM E-score” value was -0.00085.

For the sequence AGCCCTCG, the “PBM E-score” value is -0.123. To CCGTATGC belongs -0.102. To CATGTGAG belongs -0.0689. To GCGATAAC belongs -0.145; to AAAAACCA, 0.244; to GGAAATCC, 0.102. Regarding GACGACGA, the “PBM E-score” value was -0.0942. As for CGAACTAA, the figure is -0.0033. Consider CGCCTGCA, for which the “PBM E-score” value is -0.0677. To ACGGACTG belongs 0.0922. For the sequence TACAAATA, the “PBM E-score” value stood at 0.281. For AAAGACAT, the “PBM E-score” value was 0.387. In the case of AGCCCGCT, the “PBM E-score” value is -0.155. Take ATACGTCG: the “PBM E-score” value was -0.0782. As for CGACCATA, the figure is 0.086; as for GGTATTAA, -0.0168.

With AGACTGAG, the “PBM E-score” value is -0.00524. To CATTTGTA belongs 0.36; to CGGACCAC, -0.0995; to AGGGGCAT, -0.193. As to AAAGTTAC, the “PBM E-score” value was found to be 0.0837. Consider ATTCCACG, for which the “PBM E-score” value was determined as 0.0113.

For TGACACCA, the “PBM E-score” value is 0.00586. As for AGTGGCGA, the figure is -0.0214; as for GCAACATA, 0.0435; as for CGGAAGCC, -0.0918. Regarding GTGTCTGA, the “PBM E-score” value worked out at 0.185. To GTGTCCTA belongs 0.468; to GCGAAGAA, -0.0414; to AGTAGTGC, -0.19.

For the sequence TCGGGTAA, the “PBM E-score” value was -0.0398. To CGGCCTGC belongs -0.153; to GCCTAAAC, 0.0003; to GGCGGCAA, -0.113.

Take ATGGCCGA: the “PBM E-score” value is 0.0106.

Regarding GCGGAGAC, the “PBM E-score” value is 0.186. As for AGCGCGTG, the figure is -0.133; as for GGGATGAC, 0.0385; as for CCAGCTGG, 0.182. For TCACCGCA, the “PBM E-score” value was -0.0728. As to CGTCATAG, the “PBM E-score” value was -0.0255. As for GAACATAA, the figure is 0.113; as for AACCGCGA, 0.191; as for AGGGCGAC, -0.209. To ACTTCCGA belongs 0.019.

Regarding CCACCTCC, the “PBM E-score” value was -0.24. To CGTTCAGC belongs -0.0105. To ACCGTCAA belongs -0.0194; to GAATACGC, -0.0133; to AAGCCGAC, -0.0829.

For the sequence AGGCCCAC, the “PBM E-score” value was -0.359. As for AACTTGGA, the figure is 0.0755. As for AACCTCGA, the “PBM E-score” value amounted to 0.0191.

Turning to CTAAGAGC, the “PBM E-score” value was -0.126. With AAAAGTAT, the “PBM E-score” value stood at 0.17.

Turning to AAGGAACC, the “PBM E-score” value is 0.0949. Regarding ACGGCGTA, the “PBM E-score” value worked out at 0.0347. As for GTGTTCTA, the figure is 0.0609. To ATTTGAGA belongs 0.13. As for AGCAAGCT, the figure is -0.128; as for AATCAACC, -0.189. On to AGAAGTGC, for which the “PBM E-score” value was -0.19. For AAAATACC, the “PBM E-score” value is -0.0192. To AAGACCCC belongs -0.145; to CGAATCAC, -0.114.

On to TAATGGAA, for which the “PBM E-score” value was determined as 0.151. To ACTCACCA belongs -0.135.

The values above are taken from the supplement of paper PMC3334620.
